The list shows a part of the results.
Assays:
Experiment in all cases: glycan array binding signal (z-score within array); higher = stronger binding
Settings in all cases: glycan notation: IUPAC condensed, linker removed
[1] = biological target: Gal(b1-4)GalNAc(b1-3)[Fuc(a1-2)]Gal(b1-4)GlcNAc
In short: (§1)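 Glycan array data came from 3228 arrays in the Consortium for Functional Glycomics database, and only arrays with an available protein sequence were kept. Glycan names were put into IUPAC-condensed notation, and columns mapping to the same glycan were averaged. The binding signal is a within-array Z-score, averaged across arrays of one protein sequence run at different concentrations or buffers and across linkers. A negative Z-score can be read as non-binding.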

[2] = biological target: Gal(b1-4)Glc
In short: as §1

[3] = biological target: Gal(b1-4)Glc6S
In short: as §1

[4] = biological target: Gal(b1-4)GlcNAc
In short: as §1

[5] = biological target: Gal(b1-4)GlcNAc(a1-6)Gal(b1-4)GlcNAc
In short: as §1

[6] = biological target: Gal(b1-4)GlcNAc(b1-2)Man
In short: as §1

[7] = biological target: Gal(b1-4)GlcNAc(b1-2)Man(a1-3)Man(b1-4)GlcNAc(b1-4)GlcNAc
In short: as §1

[8] = biological target: Gal(b1-4)GlcNAc(b1-2)Man(a1-3)[Gal(b1-4)GlcNAc(b1-2)Man(a1-6)]Man(b1-4)GlcNAc(b1-4)GlcNAc
In short: as §1

[9] = biological target: Gal(b1-4)GlcNAc(b1-2)Man(a1-3)[Gal(b1-4)GlcNAc(b1-2)Man(a1-6)]Man(b1-4)GlcNAc(b1-4)[Fuc(a1-6)]GlcNAc
In short: as §1

[10] = biological target: Gal(b1-4)GlcNAc(b1-2)Man(a1-3)[Gal(b1-4)GlcNAc(b1-2)Man(a1-6)][Gal(b1-4)GlcNAc(b1-4)]Man(b1-4)GlcNAc(b1-4)[Fuc(a1-6)]GlcNAc
In short: as §1

[11] = biological target: Gal(b1-4)GlcNAc(b1-2)Man(a1-3)[Gal(b1-4)GlcNAc(b1-2)Man(a1-6)][GlcNAc(b1-4)]Man(b1-4)GlcNAc(b1-4)[Fuc(a1-6)]GlcNAc
In short: as §1

[12] = biological target: Gal(b1-4)GlcNAc(b1-2)Man(a1-3)[GlcNAc(b1-2)Man(a1-6)]Man(b1-4)GlcNAc(b1-4)GlcNAc
In short: as §1

[13] = biological target: Gal(b1-4)GlcNAc(b1-2)Man(a1-3)[GlcNAc(b1-4)][Gal(b1-4)GlcNAc(b1-2)Man(a1-6)]Man(b1-4)GlcNAc(b1-4)GlcNAc
In short: as §1

[14] = biological target: Gal(b1-4)GlcNAc(b1-2)Man(a1-3)[Man(a1-6)]Man(b1-4)GlcNAc(b1-4)GlcNAc
In short: as §1

[15] = biological target: Gal(b1-4)GlcNAc(b1-2)Man(a1-6)Man(b1-4)GlcNAc(b1-4)GlcNAc
In short: as §1

[16] = biological target: Gal(b1-4)GlcNAc(b1-2)Man(a1-6)[GlcNAc(b1-2)Man(a1-3)]Man(b1-4)GlcNAc(b1-4)GlcNAc
In short: as §1

[17] = biological target: Gal(b1-4)GlcNAc(b1-2)Man(a1-6)[Man(a1-3)]Man(b1-4)GlcNAc(b1-4)GlcNAc
In short: as §1

[18] = biological target: Gal(b1-4)GlcNAc(b1-2)[Gal(b1-4)GlcNAc(b1-4)]Man(a1-3)[Gal(b1-4)GlcNAc(b1-2)Man(a1-6)]Man(b1-4)GlcNAc(b1-4)GlcNAc
In short: as §1

[19] = biological target: Gal(b1-4)GlcNAc(b1-2)[Gal(b1-4)GlcNAc(b1-4)]Man(a1-3)[Gal(b1-4)GlcNAc(b1-2)[Gal(b1-4)GlcNAc(b1-6)]Man(a1-6)]Man(b1-4)GlcNAc(b1-4)GlcNAc
In short: as §1

[20] = biological target: Gal(b1-4)GlcNAc(b1-2)[Gal(b1-4)GlcNAc(b1-4)]Man(a1-3)[GlcNAc(b1-4)][Gal(b1-4)GlcNAc(b1-2)Man(a1-6)]Man(b1-4)GlcNAc(b1-4)GlcNAc
In short: as §1

[21] = biological target: Gal(b1-4)GlcNAc(b1-2)[Gal(b1-4)GlcNAc(b1-4)]Man(a1-3)[GlcNAc(b1-4)][Gal(b1-4)GlcNAc(b1-2)[Gal(b1-4)GlcNAc(b1-6)]Man(a1-6)]Man(b1-4)GlcNAc(b1-4)GlcNAc
In short: as §1

[22] = biological target: Gal(b1-4)GlcNAc(b1-2)[Gal(b1-4)GlcNAc(b1-6)]Man(a1-6)[Gal(b1-4)GlcNAc(b1-2)Man(a1-3)]Man(b1-4)GlcNAc(b1-4)GlcNAc
In short: as §1

B1: LSL-150 (Laetiporus sulphureus), Q7Z8V1 (protein)
chain: MTDIYIPPEGLYFRLLGFASRQVIFARNSPSPDVGLSPVNDQATDQYFSLIYGTGEHAGLYAIKSKATGKVLFSRRPAEPYVGQIDGDGRYPDNWFKIEPGKTYLSKYFRLVQPSTGTALVSRTHLQPYFWNHPQTEVFDDQYFTFLFEDHHHHHH
- glycan array binding signal (z-score) [1]: -0.21
- glycan array binding signal (z-score) [2]: -0.212
- glycan array binding signal (z-score) [3]: -0.202
- glycan array binding signal (z-score) [4]: -0.203
- glycan array binding signal (z-score) [5]: -0.207
- glycan array binding signal (z-score) [6]: -0.198
- glycan array binding signal (z-score) [7]: -0.207
- glycan array binding signal (z-score) [8]: -0.209
- glycan array binding signal (z-score) [9]: -0.212
- glycan array binding signal (z-score) [10]: -0.211
- glycan array binding signal (z-score) [11]: -0.208
- glycan array binding signal (z-score) [12]: -0.21
- glycan array binding signal (z-score) [13]: -0.209
- glycan array binding signal (z-score) [14]: -0.2
- glycan array binding signal (z-score) [15]: -0.211
- glycan array binding signal (z-score) [16]: -0.214
- glycan array binding signal (z-score) [17]: -0.209
- glycan array binding signal (z-score) [18]: -0.168
- glycan array binding signal (z-score) [19]: -0.193
- glycan array binding signal (z-score) [20]: -0.195
- glycan array binding signal (z-score) [21]: -0.206
- glycan array binding signal (z-score) [22]: -0.198
